In PMC4336329 (PLoS ONE, 2015):
The whole screen tested about 310,000 compounds, of which about 2,200 (0.71%) showed an effect of 50% or more. The effect is printed as a negative number. The list shows a part of the results.

target: human ether-à-go-go-related gene (hERG) potassium channel (human, UniProt Q12809); test: primary screen, population patch clamp on CHO cells stably expressing hERG
Sequence (Q12809 whole entry, looked up): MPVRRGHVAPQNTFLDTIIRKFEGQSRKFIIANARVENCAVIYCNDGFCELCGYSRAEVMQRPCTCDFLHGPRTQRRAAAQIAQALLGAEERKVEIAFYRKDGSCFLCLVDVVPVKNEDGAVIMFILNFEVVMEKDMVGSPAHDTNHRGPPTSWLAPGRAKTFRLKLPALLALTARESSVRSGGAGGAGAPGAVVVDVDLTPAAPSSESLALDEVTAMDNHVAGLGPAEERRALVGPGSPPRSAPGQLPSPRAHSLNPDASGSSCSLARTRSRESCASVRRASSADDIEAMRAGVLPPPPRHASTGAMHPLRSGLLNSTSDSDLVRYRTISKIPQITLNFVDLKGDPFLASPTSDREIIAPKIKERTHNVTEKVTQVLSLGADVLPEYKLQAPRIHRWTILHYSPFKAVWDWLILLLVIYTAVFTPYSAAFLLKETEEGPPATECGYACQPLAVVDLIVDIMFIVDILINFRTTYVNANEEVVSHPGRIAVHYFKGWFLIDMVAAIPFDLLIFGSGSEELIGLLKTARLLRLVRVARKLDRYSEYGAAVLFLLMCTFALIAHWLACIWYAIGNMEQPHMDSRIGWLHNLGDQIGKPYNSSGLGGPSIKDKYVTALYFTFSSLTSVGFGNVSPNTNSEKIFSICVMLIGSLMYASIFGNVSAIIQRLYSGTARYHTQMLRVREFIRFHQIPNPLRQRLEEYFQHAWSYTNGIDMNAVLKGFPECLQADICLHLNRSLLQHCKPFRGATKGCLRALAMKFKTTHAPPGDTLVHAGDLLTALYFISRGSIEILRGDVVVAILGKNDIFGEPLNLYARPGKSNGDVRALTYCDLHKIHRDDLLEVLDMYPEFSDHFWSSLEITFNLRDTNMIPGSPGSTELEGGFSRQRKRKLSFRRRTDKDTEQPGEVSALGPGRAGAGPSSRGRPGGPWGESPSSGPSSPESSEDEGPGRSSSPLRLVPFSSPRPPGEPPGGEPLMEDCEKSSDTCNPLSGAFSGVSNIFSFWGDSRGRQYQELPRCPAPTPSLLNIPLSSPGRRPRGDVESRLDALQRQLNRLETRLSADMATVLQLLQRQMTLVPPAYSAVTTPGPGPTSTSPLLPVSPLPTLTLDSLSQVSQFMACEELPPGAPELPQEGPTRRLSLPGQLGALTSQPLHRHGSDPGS

| Compound | hERG current change (%, negative = inhibition) at 1uM |
| --- | --- |
| COc1ccc(OC)c(NC(=S)NCCCN2CCOCC2)c1 | 2.82% |
| COc1ccc(N2CCN(C(=O)Nc3ccc(S(=O)(=O)N(C)C)cc3)CC2)cc1 | 8.83% |
| COc1ccc(C)cc1S(=O)(=O)N1CCC2(CC1)OCCN2S(=O)(=O)c1cccs1 | 4.3% |
| c1ccc(CCn2nnnc2CN2CCC(n3nnc4ccccc43)CC2)cc1 | -18.4% |
| O=C(CCC(=O)N1CCOc2ccccc21)NCCN1CCOCC1 | 7.35% |
| O=C(NC1CCCCCC1)C1CCN(S(=O)(=O)c2ccc(F)cc2)CC1 | 7.17% |
| CCn1c(CSc2nc3ccccc3s2)nnc1SCC(=O)OC(C)(C)C | -15.4% |
| CC(C)Cc1nc2sc3c(c2c(=O)n1N)CC(C)(C)OC3 | 4.88% |
| CCCCNC(=O)CCNS(=O)(=O)c1ccc(Br)cc1 | -7.26% |
| O=[N+]([O-])c1ccc(C[n+]2cc(-c3ccc(Cl)c(Cl)c3)n3c2CCCCC3)cc1.[Br-] | 0.678% |
| NC(=O)c1ccsc1NC(=O)COC(=O)c1ccc(Cl)c(N)c1 | 4.13% |
| Cc1nc2nc(-c3ccc(Cl)cc3)[nH]n2c(=O)c1Cc1ccccc1 | 9.81% |
| O=C(O)c1ccccc1NC(=S)NC(=O)c1sc2ccccc2c1Cl | 16.1% |
| CCN(C(=O)COc1ncnc2scc(-c3ccc(F)cc3)c12)C1CCS(=O)(=O)C1 (stereo not drawn) | 8.85% |
| CC(C)Sc1nc2sccc2c(=O)n1-c1ccccc1 | 12.7% |
| CC(C)(/C=N/O)/[N+]([O-])=C/C=[N+](\[O-])C(C)(C)/C=N/O | 5.25% |
| COC1CCCN(Cc2nc(Cc3ccccc3F)no2)C1 (stereo not drawn) | 10.9% |
| CCOC(=O)C1CCN(C(=O)c2cc(C(C)(C)C)nn2Cc2ccccc2)CC1 | 6.03% |
| CN1CCN(C(=S)NC(=O)c2ccc(S(=O)(=O)N3CCOCC3)cc2)CC1 | 26.9% |
| CCOC(=O)c1cc(CC)sc1NC(=O)Cc1ccccc1 | 13.9% |
| Cc1ccc(S(=O)(=O)Nn2c(C)ccc2C)cc1 | 5.59% |
| C/C(CC(=O)Nc1ccc2c(c1)OCO2)=N\NC(=O)C(c1ccccc1)c1ccccc1 | 6.43% |
| O=C(NC(=S)NCc1ccc(F)cc1)c1ccccc1 | 1.5% |

| Compound | hERG current change (%, negative = inhibition) at 1uM |
| --- | --- |
| O=C(CN1CCN(c2ccc(F)cc2)CC1)Nc1ccccc1Br | 10.4% |
| O=C(c1cc(-c2ccc3c(c2)OCO3)on1)N1CCCCC1 | 9.25% |
| Cc1cc(C(=O)NCc2cccs2)n(-c2ccccc2)n1 | -4.45% |
| Cc1cc(NC(=O)CCC(=O)N(Cc2ccco2)C(C(=O)NC2CCCC2)c2ccc(F)cc2)no1 (stereo not drawn) | 11.7% |
| CCOC(=O)COc1ccsc1C(=O)OC | 6.87% |
| OCCC1CN(Cc2cccn2-c2cccnc2)CCN1Cc1ccc(F)cc1 (stereo not drawn) | -21.4% |
| COc1ccc(/C=C2\CCc3ccccc3C2=O)cc1CN1CCOCC1 | 7.81% |
| COc1ccc(CN(CC(=O)NCc2ccco2)C(=O)CCC(=O)Nc2nccs2)cc1 | 13.5% |
| Cn1c(=O)n(CC(=O)NCC2CCCO2)c(=O)c2c3c(sc21)COC(C)(C)C3 (stereo not drawn) | 8.58% |
| CCN(C(=O)CSc1nc2ccccc2c(=O)n1-c1cccc(C)c1)C1CCS(=O)(=O)C1 (stereo not drawn) | 7.41% |
| Cc1cc(NC(=O)CSc2nnnn2-c2ccc(F)cc2)no1 | 17.4% |
| Cc1ccc(C(=O)NCC(=O)NCc2cc(=O)n(C)c(=O)n2C)cc1 | 22.8% |
| COc1ccc(CNC(=O)c2cc(-n3cnnc3)ccc2Cl)cc1 | -5.99% |
| C=CCN1CCN(C(c2ccccc2)c2nnnn2CCC(C)C)CC1.Cl (stereo not drawn) | -4.18% |
| Cc1ccc(N(CC(=O)N/N=C/c2ccc(OCC(N)=O)cc2)S(C)(=O)=O)cc1Cl | 10.5% |
| NC(=O)/C(=C/c1cccnc1)NC(=O)c1ccccc1 | 7.35% |
| Cc1ccc2nc(-c3ccc(SCC(=O)Nc4nnc(C)s4)nc3)[nH]c2c1 | 12.3% |
| COc1ccc(CN2CCNC(=O)C2CC(=O)N(C)CC2CCOCC2)c(F)c1 (stereo not drawn) | 13.4% |
| Cc1cc(C)n(CC(=O)NC2CCCN(Cc3ccc(Cl)cc3)C2)n1 (stereo not drawn) | 8.85% |
| Br.CCN(CC)CCN1Cc2ccccc2C1=N | 5.88% |
| COc1ccc([C@H]2CC(=O)C=C(c3ccc(CO)cc3)C2)cc1 | 12.6% |
| COc1cc(/C=N/n2nnnc2N)ccc1O | -10.6% |
| COC(=O)C(C)Oc1ccc(Oc2nc(Cl)ccc2Cl)cc1 (stereo not drawn) | 9.15% |

| Compound | hERG current change (%, negative = inhibition) at 1uM |
| --- | --- |
| CC1(C)c2[nH]c3ccccc3c2C[C@H]2C(=O)N(CCCCCO)CC(=O)N21 | 12.3% |
| CN(C)C=O.CNC(=O)CSc1nc2nc(C)cc(C)n2n1 | 8.43% |
| Cc1ccc(NC(=O)COC(=O)c2ccc(S(=O)(=O)NCc3ccco3)cc2)cc1 | 7.78% |
| O=C(NCCc1c[nH]c2ccccc12)c1ccc2[nH]c(=O)c(=O)[nH]c2c1 | 12.1% |
| Cc1cc(SCc2cccc(C(F)(F)F)c2)nc(=O)[nH]1 | 9.6% |
| O=C(c1ccccc1)c1coc2c1C(=O)c1ccccc1C2=O | 3.99% |
| O=C(CN1CCN(C(=O)c2c(F)cccc2F)CC1)Nc1ccccc1C(F)(F)F | 3.09% |
| O=C(Nc1ccc2c(c1)OCO2)Nc1ccccc1F | 9.14% |
| Cc1cc(NC(=O)Cc2ccsc2)ccc1Br | 14.1% |
| COc1cc(CCCN2C(=S)NC[C@@H]2CCCCN)cc(OC)c1OC | 12.9% |
| CCOc1cccc2sc(=NC(=O)CCS(=O)(=O)c3ccc(F)cc3)n(C)c12 | 4.6% |
| CCOC(=O)C1CCN(C(=O)c2ccco2)CC1 | 11.5% |
| CCOC(=O)COc1cc(Br)c(/C=N/Nc2ccccc2)cc1OC | 3.72% |
| Cc1nn(C)c(C)c1S(=O)(=O)N1CCC(C(=O)NC2CCCCCC2)CC1 | 13.3% |
| O=c1[nH]c2ccc(S(=O)(=O)N3CCN(Cc4ccccc4)CC3)cc2[nH]c1=O | 3.32% |
| O=C(Nc1ccc(N2CCOCC2)cc1)c1ccc2c(c1)OCO2 | 16.7% |
| COc1cc(/C=C2\NC(=S)N(C)C2=O)ccc1OCc1ccccc1F | 6.67% |
| Cc1ccc(C(=O)/C=C\Nc2ccc(C)c(C)c2)cc1 | -8.32% |
| COc1ccc(Cc2nc3ccc(C(=O)N4CCCC4)cc3o2)cc1 | 8.3% |
| O=C(O)c1nn(CCSc2ccccc2F)c(=O)c2ccccc12 | -2.2% |
| CCO[C@@H]1OC(C(=O)N2CCOCC2)=C[C@H](C)[C@H]1CCCO | 14.6% |
| O=c1c2ccccc2nc(/C=C/c2c[nH]c3ccccc23)n1CCO | 18.5% |
| CCN(CC)S(=O)(=O)c1cc(C(=O)Nc2ccc(Cl)cn2)ccc1C | -4.67% |

| Compound | hERG current change (%, negative = inhibition) at 1uM |
| --- | --- |
| O=C(Nc1nc(-c2cccs2)cs1)c1cccc(S(=O)(=O)N2CCCCCC2)c1 | 15.5% |
| OCCN1CCN(c2ncnc3nc[nH]c23)CC1 | 9.59% |
| O=C(NCCNC(=O)c1ccccc1O)c1ccccc1O | 15.7% |
| Cc1ccc(N(C)C(=O)CN(C)S(=O)(=O)c2ccc3c(c2)n(C)c(=O)c(=O)n3C)cc1 | -2.86% |
| Cc1ccccc1CN1CCC(n2nccc2NC(=O)CCOc2ccccc2)CC1 | -5.06% |
| Cn1ccnc1-c1nnn(-c2ccc(Cl)c(Cl)c2)n1 | 15% |
| Cc1cc(O)c(/C=N/Nc2ccccc2Cl)c(=O)o1 | 2.65% |
| C=CCNC(=O)COc1ccccc1C#N | -7.66% |
| CC(Sc1nc(-c2ccco2)nc2c1c(=O)n(C)c(=O)n2C)C(=O)O (stereo not drawn) | 7.48% |
| CCOc1ccccc1NC(=O)C1CC(=O)n2ncnc2N1 (stereo not drawn) | -6.73% |
| CCOC(=O)Cn1ccc(-c2ccccc2)c(C#N)c1=O | 17.2% |
| Cn1nc([N+](=O)[O-])nc1Sc1nnc(-c2ccccc2)o1 | -0.0317% |
| COc1ccc(N2CCOCC2)c(NC(=O)c2cccc3ccccc23)c1 | 13.3% |
| COc1ccc(-n2ncc3c2CC(C)(C)CC3NC(=O)c2oc(C)cc2C)cc1 (stereo not drawn) | 16.2% |
| O=C(Nc1nnc(-c2ccccc2SCc2ccccc2F)s1)Nc1ccccc1F | 4.17% |
| COc1ccccc1CNC(=O)C1CCC(CNS(=O)(=O)c2ccc(F)cc2)CC1 (stereo not drawn) | 9.65% |
| CCC1CCc2c(sc(NC(=O)c3cnccn3)c2C(N)=O)C1 (stereo not drawn) | 14.6% |
| COc1ccc(NC(C)=O)cc1NC(C)C(=O)Nc1ccccc1F (stereo not drawn) | 14.1% |
| CC(C)NC(=O)c1cccc(Br)c1 | 9.26% |
| CN(Cc1ccco1)C(=O)C(Cc1ccccc1)NS(=O)(=O)c1ccc2c(c1)CCC(=O)N2 (stereo not drawn) | -12% |
| Cc1ccc(S(=O)(=O)N2CCN(C(=O)NCc3ccc(C(=O)O)cc3)CC2)cc1 | 6.3% |
